# Some of the results follow.
# B1: UDA (Urtica dioica), P11218 (protein)
# chain: MMMRFLSAVVIMSSAMAVGLVSAQRCGSQGGGGTCPALWCCSIWGWCGDSEPYCGRTCENKCWSGERSDHRCGAAVGNPPCGQDRCCSVHGWCGGGNDYCSGSKCQYRCSSSVRGPRVALSGNSTANSIGNVVVTEPLFDQMFSHRKDCPSQGFYSYHSFLVAAESFPAFGTIGDVATRKREVAAFLAHISQATSGERSDVENPHAWGLCHINTTTVTENDFCTSSDWPCAAGKKYSPRGPIQLTHNFNYGLAGQAIGEDLIQNPDLVEKDPIISFKTALWFWMSQHDNKPSCHDIVLNANSAANRIPNKGVIGNIISRAFGHDDFAVRSSSIGFYKRYCDMLGVSYGHDLKYWFDNTPSSEFQRIQMRVAA
# Legend:
# Test in all cases: glycan array binding signal (z-score within array); higher = stronger binding
# Settings in all cases: glycan notation: IUPAC condensed, linker removed
# [1] = target: GlcNAc(b1-4)Gal(b1-4)GlcNAc
# Summary of the method: (§1)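 Glycan array data were curated from 3228 arrays in the Consortium for Functional Glycomics database and kept only where the protein sequence was available. Glycan names were converted to IUPAC-condensed notation, and columns mapping to the same glycan were averaged. The binding signal is a within-array Z-score, averaged across arrays of the same protein sequence at different concentrations or buffers and across linkers. Negative Z-scores can be read as non-binding.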
# GlcNAc(b1-4)GlcNAc = target: GlcNAc(b1-4)GlcNAc
# Summary of the method: as §1
# [2] = target: GlcNAc(b1-4)GlcNAc(b1-4)GlcNAc
# Summary of the method: as §1
# [3] = target: GlcNAc(b1-4)GlcNAc(b1-4)GlcNAc(b1-4)GlcNAc(b1-4)GlcNAc
# Summary of the method: as §1
# [4] = target: GlcNAc(b1-4)GlcNAc(b1-4)GlcNAc(b1-4)GlcNAc(b1-4)GlcNAc(b1-4)GlcNAc
# Summary of the method: as §1
# [5] = target: GlcNAc(b1-4)[GlcNAc(b1-6)]GalNAc
# Summary of the method: as §1
# [6] = target: GlcNAc(b1-6)Gal(b1-4)GlcNAc
# Summary of the method: as §1
# GlcNAc(b1-6)GalNAc = target: GlcNAc(b1-6)GalNAc
# Summary of the method: as §1
# [7] = target: GlcNAc6S(b1-3)Gal(b1-4)GlcNAc
# Summary of the method: as §1
# Kdn(a2-3)Gal(b1-3)GalNAc = target: Kdn(a2-3)Gal(b1-3)GalNAc
# Summary of the method: as §1
# Kdn(a2-3)Gal(b1-3)GlcNAc = target: Kdn(a2-3)Gal(b1-3)GlcNAc
# Summary of the method: as §1
# Kdn(a2-3)Gal(b1-4)Glc = target: Kdn(a2-3)Gal(b1-4)Glc
# Summary of the method: as §1
# Kdn(a2-3)Gal(b1-4)GlcNAc = target: Kdn(a2-3)Gal(b1-4)GlcNAc
# Summary of the method: as §1
# [8] = target: Kdn(a2-3)Gal(b1-4)[Fuc(a1-3)]GlcNAc
# Summary of the method: as §1
# Kdn(a2-6)Gal(b1-4)GlcNAc = target: Kdn(a2-6)Gal(b1-4)GlcNAc
# Summary of the method: as §1
# [9] = target: Man(a1-2)Man(a1-2)Man(a1-3)Man
# Summary of the method: as §1
# [10] = target: Man(a1-2)Man(a1-2)Man(a1-6)[Man(a1-3)]Man
# Summary of the method: as §1
# Man(a1-2)Man(a1-3)Man = target: Man(a1-2)Man(a1-3)Man
# Summary of the method: as §1
# [11] = target: Man(a1-2)Man(a1-3)[Man(a1-2)Man(a1-6)]Man
# Summary of the method: as §1
# [12] = target: Man(a1-2)Man(a1-3)[Man(a1-2)Man(a1-6)]Man(a1-6)[Man(a1-2)Man(a1-2)Man(a1-3)]Man
# Summary of the method: as §1
# [13] = target: Man(a1-2)Man(a1-3)[Man(a1-2)Man(a1-6)]Man(a1-6)[Man(a1-2)Man(a1-2)Man(a1-3)]Man(b1-4)GlcNAc(b1-4)GlcNAc
# Summary of the method: as §1
# [14] = target: Man(a1-2)Man(a1-3)[Man(a1-2)Man(a1-6)]Man(a1-6)[Man(a1-3)[Man(a1-6)]Man(a1-6)]Man(b1-4)GlcNAc(b1-4)GlcNAc
# Summary of the method: as §1
# [15] = target: Man(a1-2)Man(a1-3)[Man(a1-6)]Man(a1-6)[Man(a1-2)Man(a1-3)]Man(b1-4)GlcNAc(b1-4)GlcNAc
# Summary of the method: as §1
# [16] = target: Man(a1-2)Man(a1-6)[Man(a1-3)]Man(a1-6)[Man(a1-2)Man(a1-2)Man(a1-3)]Man
# Summary of the method: as §1
# [17] = target: Man(a1-2)Man(a1-6)[Man(a1-3)]Man(a1-6)[Man(a1-2)Man(a1-2)Man(a1-3)]Man(b1-4)GlcNAc(b1-4)GlcNAc
# Summary of the method: as §1
# Man(a1-3)[Man(a1-6)]Man = target: Man(a1-3)[Man(a1-6)]Man
# Summary of the method: as §1
# [18] = target: Man(a1-3)[Man(a1-6)]Man(a1-6)[Man(a1-2)Man(a1-3)]Man(b1-4)GlcNAc(b1-4)GlcNAc
# Summary of the method: as §1
# [19] = target: Man(a1-3)[Man(a1-6)]Man(a1-6)[Man(a1-3)]Man
# Summary of the method: as §1
# [20] = target: Man(a1-3)[Man(a1-6)]Man(a1-6)[Man(a1-3)]Man(b1-4)GlcNAc(b1-4)GlcNAc
# Summary of the method: as §1
# [21] = target: Man(a1-3)[Man(a1-6)]Man(b1-4)GlcNAc(b1-4)GlcNAc
# Summary of the method: as §1
# [22] = target: Man(a1-3)[Man(a1-6)]Man(b1-4)GlcNAc(b1-4)[Fuc(a1-6)]GlcNAc
# Summary of the method: as §1
# Man(a1-6)Man = target: Man(a1-6)Man
# Summary of the method: as §1
# Man(b1-4)GlcNAc = target: Man(b1-4)GlcNAc
# Summary of the method: as §1
# MurNAc(b1-4)GlcNAc = target: MurNAc(b1-4)GlcNAc
# Summary of the method: as §1
# Neu5Ac(a2-3)Gal = target: Neu5Ac(a2-3)Gal
# Summary of the method: as §1
# [23] = target: Neu5Ac(a2-3)Gal(b1-3)GalNAc
# Summary of the method: as §1
# [24] = target: Neu5Ac(a2-3)Gal(b1-3)GalNAc(b1-3)Gal(a1-4)Gal(b1-4)Glc
# Summary of the method: as §1
# [25] = target: Neu5Ac(a2-3)Gal(b1-3)GalNAc(b1-4)[Neu5Ac(a2-3)]Gal(b1-4)Glc
# Summary of the method: as §1
# [26] = target: Neu5Ac(a2-3)Gal(b1-3)GalNAc(b1-4)[Neu5Ac(a2-8)Neu5Ac(a2-3)]Gal(b1-4)Glc
# Summary of the method: as §1
# [27] = target: Neu5Ac(a2-3)Gal(b1-3)GalNAc6S
# Summary of the method: as §1
# [28] = target: Neu5Ac(a2-3)Gal(b1-3)GlcNAc
# Summary of the method: as §1
# [29] = target: Neu5Ac(a2-3)Gal(b1-3)GlcNAc(b1-2)Man
# Summary of the method: as §1
# [30] = target: Neu5Ac(a2-3)Gal(b1-3)GlcNAc(b1-2)Man(a1-3)[GlcNAc(b1-4)][Neu5Ac(a2-3)Gal(b1-3)GlcNAc(b1-2)Man(a1-6)]Man(b1-4)GlcNAc(b1-4)GlcNAc
# Summary of the method: as §1
# [31] = target: Neu5Ac(a2-3)Gal(b1-3)GlcNAc(b1-2)Man(a1-3)[Neu5Ac(a2-3)Gal(b1-3)GlcNAc(b1-2)Man(a1-6)]Man(b1-4)GlcNAc(b1-4)GlcNAc
# Summary of the method: as §1
# [32] = target: Neu5Ac(a2-3)Gal(b1-3)GlcNAc(b1-3)Gal(b1-3)GlcNAc
# Summary of the method: as §1
binder,measurement,setting,value
B1,glycan array binding signal (z-score),[1],0.062
same,glycan array binding signal (z-score),GlcNAc(b1-4)GlcNAc,-0.121
same,glycan array binding signal (z-score),[2],2.6
same,glycan array binding signal (z-score),[3],2.39
same,glycan array binding signal (z-score),[4],1.58
same,glycan array binding signal (z-score),[5],-0.189
same,glycan array binding signal (z-score),[6],-0.173
same,glycan array binding signal (z-score),GlcNAc(b1-6)GalNAc,-0.18
same,glycan array binding signal (z-score),[7],0.041
same,glycan array binding signal (z-score),Kdn(a2-3)Gal(b1-3)GalNAc,-0.163
same,glycan array binding signal (z-score),Kdn(a2-3)Gal(b1-3)GlcNAc,-0.19
same,glycan array binding signal (z-score),Kdn(a2-3)Gal(b1-4)Glc,-0.168
same,glycan array binding signal (z-score),Kdn(a2-3)Gal(b1-4)GlcNAc,-0.023
same,glycan array binding signal (z-score),[8],-0.166
same,glycan array binding signal (z-score),Kdn(a2-6)Gal(b1-4)GlcNAc,-0.171
same,glycan array binding signal (z-score),[9],-0.185
same,glycan array binding signal (z-score),[10],-0.184
same,glycan array binding signal (z-score),Man(a1-2)Man(a1-3)Man,-0.182
same,glycan array binding signal (z-score),[11],-0.192
same,glycan array binding signal (z-score),[12],-0.175
same,glycan array binding signal (z-score),[13],4.32
same,glycan array binding signal (z-score),[14],4.79
same,glycan array binding signal (z-score),[15],4.54
same,glycan array binding signal (z-score),[16],-0.169
same,glycan array binding signal (z-score),[17],8.27
same,glycan array binding signal (z-score),Man(a1-3)[Man(a1-6)]Man,-0.217
same,glycan array binding signal (z-score),[18],10.8
same,glycan array binding signal (z-score),[19],-0.167
same,glycan array binding signal (z-score),[20],5.89
same,glycan array binding signal (z-score),[21],6.43
same,glycan array binding signal (z-score),[22],1.88
same,glycan array binding signal (z-score),Man(a1-6)Man,-0.164
same,glycan array binding signal (z-score),Man(b1-4)GlcNAc,-0.171
same,glycan array binding signal (z-score),MurNAc(b1-4)GlcNAc,-0.157
same,glycan array binding signal (z-score),Neu5Ac(a2-3)Gal,-0.191
same,glycan array binding signal (z-score),[23],-0.188
same,glycan array binding signal (z-score),[24],-0.171
same,glycan array binding signal (z-score),[25],-0.182
same,glycan array binding signal (z-score),[26],-0.175
same,glycan array binding signal (z-score),[27],-0.191
same,glycan array binding signal (z-score),[28],-0.164
same,glycan array binding signal (z-score),[29],-0.155
same,glycan array binding signal (z-score),[30],-0.176
same,glycan array binding signal (z-score),[31],-0.162
same,glycan array binding signal (z-score),[32],-0.178

# Reference: the supplement of paper PMC8728848
